We go through 72 sequences from PMC10726135.

Some of the results follow. At the low end of the ranking the order means little. Measured with an extract: partners may take part in the binding.

The target in the assay is T1, HNF4alpha2 (COS-7 nuclear extract) (UniProt P41235).
T1 sequence: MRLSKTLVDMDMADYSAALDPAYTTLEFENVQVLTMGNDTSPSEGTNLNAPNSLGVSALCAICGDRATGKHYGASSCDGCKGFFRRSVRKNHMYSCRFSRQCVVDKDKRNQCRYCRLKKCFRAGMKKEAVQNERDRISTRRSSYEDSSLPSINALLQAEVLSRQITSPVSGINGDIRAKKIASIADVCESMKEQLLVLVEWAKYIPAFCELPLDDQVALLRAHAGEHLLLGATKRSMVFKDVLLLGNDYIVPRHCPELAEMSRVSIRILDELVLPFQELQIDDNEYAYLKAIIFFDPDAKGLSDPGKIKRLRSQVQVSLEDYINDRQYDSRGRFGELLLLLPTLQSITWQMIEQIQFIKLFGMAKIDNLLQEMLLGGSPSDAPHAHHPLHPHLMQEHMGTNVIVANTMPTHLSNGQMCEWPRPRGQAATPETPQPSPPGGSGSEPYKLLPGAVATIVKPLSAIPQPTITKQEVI
In words: protein-binding microarray. The note with it: COS-7 nuclear extract on double-stranded Agilent 4x180k PBM; binding buffer, salt, pH and temperature not given; high values mean tight binding; double strand, one strand shown; sequences stand for … in …GCCTAGGGAGATTAGAGTATCGGTCGA
Regarding AACATTATGAAATCTTATCAGAAGCTTACA, the binding signal (log2 normalized intensity) was -1.06.

As to TCTGTGGATGTATGTCCAGATAACTCTTGT, the binding signal (log2 normalized intensity) came to 1.21.

In the case of TCTTGCCTTTGCTCCTCAAAAACATTCCCC, the binding signal (log2 normalized intensity) is 1.2.

TGGACAAGGAGGCTGGGCTGCATAGAAGAA: the binding signal (log2 normalized intensity) is -1.19.

As for TGGCTAGTGACTCAGAGCATATGTTGACCC, the binding signal (log2 normalized intensity) worked out at 4.71.

In the case of CTGATAAGATTCAGAACCCATTAATTTAGC, the binding signal (log2 normalized intensity) is -1.11.

GACAGTCTCCAAGGTTATTATATTGTGGGT: the binding signal (log2 normalized intensity) was 1.9.

As to CCTCCTTAGGAAAGAGACATCTGGGAACAA, the binding signal (log2 normalized intensity) was -0.873.

Turning to GGAGTGTCTTTCAGGAAGGAATAAAAGGCT, the binding signal (log2 normalized intensity) is -1.09.

TATGAGATTCCCAGAGAGCTCCCCAAAGGG: the binding signal (log2 normalized intensity) was -1.21.

As for AAATGGAGTGGCCTTTAGAACCGGGGAGAT, the binding signal (log2 normalized intensity) was 0.804.

As for ATTAGATGATAAGGGTGAAAAGATAGCTTG, the binding signal (log2 normalized intensity) was -1.15.

In the case of TTTCCCTAGCTTATATCCCCTGCCTGGGTC, the binding signal (log2 normalized intensity) stood at 1.64.

In the case of CTGAACATAATTGCAAAATCCTTAGCAAAT, the binding signal (log2 normalized intensity) was -1.21.

With CAGGATTGGAGATCTGAACTCAAGCTCTTA, the binding signal (log2 normalized intensity) was -1.12.

For the sequence AGCACTGGCATGCAGCAGGGGAATGGAGAC, the binding signal (log2 normalized intensity) was -1.17.

Turning to AGGCTGAAGTCCAGTAGCTCAATCAAGGTT, the binding signal (log2 normalized intensity) was -0.0735.

In the case of CCAAAGTCCAAGTTGGTGAGAACAGAGTCT, the binding signal (log2 normalized intensity) is 1.33.

As to AAATCTTACCTAAGGAAGTTAACCCCATCA, the binding signal (log2 normalized intensity) worked out at 2.69.

For CTCAAGGCCTTGGCTTGGAACTGACATGCT, the binding signal (log2 normalized intensity) was -1.03.

On to TCTTCAATACAGAGTCCAAATTCCTTGGTA, for which the binding signal (log2 normalized intensity) stood at 2.82.

As to CATGAAGCAATTCTGAGCCCAACCTCCCCA, the binding signal (log2 normalized intensity) came to 4.12.

Regarding GCAAAGTACAAAGTACAGAGATGGCACAGA, the binding signal (log2 normalized intensity) amounted to 2.62.

For the sequence CTCAGCGGGAGGCAAGATAAGGGTAATCAC, the binding signal (log2 normalized intensity) is -1.07.

In the case of TCACCAAACTTCACAATGGGCCCCAGTAAA, the binding signal (log2 normalized intensity) was -1.03.

Consider ATTTTCCCACTTGTATGTCCAAGGGTCACT, for which the binding signal (log2 normalized intensity) is 4.44.

Turning to ATCTGTATCAGCCTGTGACAAAGTCCATCT, the binding signal (log2 normalized intensity) was 4.52.

Turning to TGTGGCAAAGGTGAATGACCCCTCCCCTCC, the binding signal (log2 normalized intensity) was found to be 5.48.

TCACTTTTATCACCATCTTGGTTTTGGTGG: the binding signal (log2 normalized intensity) came out at 2.38.

For TGCTAAGAATGCGAACCATTTCCCATGGGA, the binding signal (log2 normalized intensity) is -1.11.

Turning to CCATGGTGTAATGGTTAGCACTCTGGACTC, the binding signal (log2 normalized intensity) was 3.8.

In the case of AAAACAAAGGAAACCAAACATTGAAATCTT, the binding signal (log2 normalized intensity) was -1.12.

Regarding TAAGCACACTAAGGCTAAAGATTACGAACT, the binding signal (log2 normalized intensity) was -1.04.

In the case of TGTGATGAAGGCAGAAAGAAAAGGGGACCT, the binding signal (log2 normalized intensity) is -1.13.

For the sequence TTACGGTTAGGGTTAGGGTTAGGGTTAGGG, the binding signal (log2 normalized intensity) stood at 1.3.

For the sequence CTTGTTATCTTGTCTCTTCTTGTACCTCTG, the binding signal (log2 normalized intensity) was found to be 2.05.

Take AGCTCTCTTTGCTCTCCTCCTAATCACTGC: the binding signal (log2 normalized intensity) was determined as 0.549.

As to GGCCTGATGGTGAGTTCTGTCCTTTGTCCC, the binding signal (log2 normalized intensity) was determined as 3.46.

Turning to TTAACAAGGACAAAGGTCAACAAACGCCCC, the binding signal (log2 normalized intensity) worked out at 5.45.

As to AAGTCTGAAGGCAGGGCTTTTCCATTGACA, the binding signal (log2 normalized intensity) was -1.09.

Take GAAAAAAAACCATTGCAAATTGGATGTTGA: the binding signal (log2 normalized intensity) was 1.27.

As to AGGAGGTCAGAACTGTGGACTCGCTGCCTT, the binding signal (log2 normalized intensity) is -0.0538.

Regarding TACATGAGGAGTGAGAACAGACAAAATTAA, the binding signal (log2 normalized intensity) was -0.4.

Consider AATCTCTGCACAGCATAGAAAACAAGTTAG, for which the binding signal (log2 normalized intensity) is -0.942.

For TACCAGCCAATTAGAAGGCTCCCTGCTGCG, the binding signal (log2 normalized intensity) is -1.05.

AAACAGACCTCTCTCTCCCCAGACAGCCAC: the binding signal (log2 normalized intensity) stood at 2.9.

In the case of GGTATAAAGGTCAGGGATAGAACTGGTCCT, the binding signal (log2 normalized intensity) was 0.723.

With TTTTCAACATATACTTTGAACTTGTTTTTT, the binding signal (log2 normalized intensity) worked out at 2.27.

Regarding GGCCCCTGAGCACTGTCTCAGGGTCCACAT, the binding signal (log2 normalized intensity) was 2.72.

Turning to GGGCTTTTGTCACATTCCAGACTTTGTACA, the binding signal (log2 normalized intensity) was 4.95.

As for GAGCAGCACTTTTGGAGTTTGACCTGGAGC, the binding signal (log2 normalized intensity) stood at 5.38.

For the sequence TTTGGAATTCCCTGCAAGGACAAAGGTCAT, the binding signal (log2 normalized intensity) is 6.87.

For TCTGGGAGTGCCCTTGCCGAGAGCGGCTCG, the binding signal (log2 normalized intensity) is -1.2.

As to GCTGTTAGCTGAAGGACGTCAGAACTGTCC, the binding signal (log2 normalized intensity) was -1.06.

Consider TGGAATCCAAAGTATTTTCTGTCTAGGTGC, for which the binding signal (log2 normalized intensity) was 1.09.

Take TCCCTGGTATGTACTTTCTTTTGGCTCTCT: the binding signal (log2 normalized intensity) is 1.59.

Consider TGGCCTGGCATTTGAGACTAGCCACAATAG, for which the binding signal (log2 normalized intensity) was -1.04.

Regarding TTTGTGTGTGTGTGTGTGTGTCTGTAGTTT, the binding signal (log2 normalized intensity) came out at 3.28.

Take TCAATGTGATCAGGTGTGGGCATTAGCAGG: the binding signal (log2 normalized intensity) amounted to 0.838.

For the sequence GACGGGAGGAAAACTGGGCAAAGGTCAGGA, the binding signal (log2 normalized intensity) amounted to 4.92.

On to TATGGATTAAATCTTGTTGGCTTGACGCTA, for which the binding signal (log2 normalized intensity) is -1.04.

AGCTCAATCAAGGTTCACTGCAGCCTTGAC: the binding signal (log2 normalized intensity) was -1.07.

In the case of AGCCTGAGCCACTTCACTGGTGTGATCTTT, the binding signal (log2 normalized intensity) was found to be 2.73.

As for GGGCCAAGCTTAGGAATTCCAAGAAGGCAG, the binding signal (log2 normalized intensity) was -0.931.

In the case of CCTCGACCTTCGGCTGGGGATGAAGGGGGC, the binding signal (log2 normalized intensity) is -1.02.

Turning to AGCAGACACTGAAAGATGGTATGCTCTGAT, the binding signal (log2 normalized intensity) is -1.08.

Take CAGTCCACATTTCTGAGCTGTGGAAACTCC: the binding signal (log2 normalized intensity) is -1.15.

As to ACTTTCTGTGTCTTGGCAGTGATCAGTGTT, the binding signal (log2 normalized intensity) is 2.24.

Take AAGGTTGGTGTGAACCAGGGTTAAGGTTTT: the binding signal (log2 normalized intensity) is 1.25.

Consider AAGCCGTGGTGCTGTCCAAGGTGCTAGCTC, for which the binding signal (log2 normalized intensity) is -1.1.

For AAGTTGTAAAGATACTGCTTTTAAGAAAAA, the binding signal (log2 normalized intensity) was -0.727.

On to TGCACCCCAGGTACGGAGGACAGCCACCCG, for which the binding signal (log2 normalized intensity) is -1.08.
